# Experimental data as given in PMC6919601, “Identification of Plasmodium dipeptidyl aminopeptidase allosteric inhibitors by high throughput screening” (PLoS ONE, 2019).
# The whole screen tested about 110,000 compounds, of which about 230 (0.21%) showed an effect of 50% or more. The list shows a part of the results.
# Molecular target: DPAP1 (Plasmodium falciparum, UniProt Q8IIJ9)
# Assay: primary screen, percent inhibition; read by cleavage of a fluorogenic dipeptide substrate; higher = more effect of the substance
# Set-up: species or system P. falciparum D10 trophozoite lysates; single well
# 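Also: 30 min substrate incubation versus DMSO and 10 µM JCP410 controls.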
# Sequence of DPAP1 (Q8IIJ9 whole entry, looked up): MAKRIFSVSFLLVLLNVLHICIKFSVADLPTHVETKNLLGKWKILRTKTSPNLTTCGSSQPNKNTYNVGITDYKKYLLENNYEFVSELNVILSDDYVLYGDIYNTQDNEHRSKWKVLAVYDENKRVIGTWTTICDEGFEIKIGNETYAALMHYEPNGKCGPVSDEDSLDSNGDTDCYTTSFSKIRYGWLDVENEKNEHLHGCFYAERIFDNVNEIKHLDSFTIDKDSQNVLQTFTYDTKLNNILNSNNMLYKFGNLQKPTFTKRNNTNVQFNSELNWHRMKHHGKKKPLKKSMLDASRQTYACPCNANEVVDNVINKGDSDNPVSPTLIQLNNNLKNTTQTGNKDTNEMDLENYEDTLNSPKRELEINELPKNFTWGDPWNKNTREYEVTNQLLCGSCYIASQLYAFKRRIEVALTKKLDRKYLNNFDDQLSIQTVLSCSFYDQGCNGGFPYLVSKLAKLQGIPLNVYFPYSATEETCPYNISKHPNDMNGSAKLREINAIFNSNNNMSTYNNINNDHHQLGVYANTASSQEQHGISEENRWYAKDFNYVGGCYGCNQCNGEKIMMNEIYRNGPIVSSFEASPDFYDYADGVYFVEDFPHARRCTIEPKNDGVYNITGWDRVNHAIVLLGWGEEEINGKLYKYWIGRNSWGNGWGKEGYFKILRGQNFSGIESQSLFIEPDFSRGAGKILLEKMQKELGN
row,SMILES,% Inhibition @ 10 uM [%]
1,O=c1cccc2n1CC1CC2CN(c2nc(N3CCOCC3)nc(N3CCOCC3)n2)C1 (stereo not drawn),-5.52
2,CCc1nnc(NC(=O)C2CCN(c3cc(C)nc4c(-c5ccc(Cl)cc5)c(C)nn34)CC2)s1,3.19
3,COc1ccc(CNC(=O)CSc2nc3ccc(N)cc3s2)cc1,-4.26
4,Cc1nnc2nc(SCC(=O)NCCC3=CCCCC3)n(-c3ccccc3Cl)c(N)c1-2,-3.93
5,O=C(O)CC12CC3CC(CC(S)(C3)C1)C2,-4.01
6,Fc1ccc(N2CCN(Cc3cc(F)ccc3F)CC2)cc1,-3.57
7,O=C(/C=C\c1ccc2c(c1)OCO2)Nc1c2c(nn1-c1ccc(Cl)cc1)CS(=O)(=O)C2,13.1
8,CCOc1cccc(C(=O)Nc2nnc(C3CCCCC3)s2)c1,-5.7
9,CCOc1ccccc1CNC(=O)CN1C(=O)CSc2nc(C)cc(C)c21,8.62
10,COc1ccc(C2C(C(=O)c3ccc(C)cc3)=C(O)C(=O)N2c2ccccc2)cc1 (stereo not drawn),-13.4
11,Cc1ccc(-c2coc3c(C)c4oc(=O)c(CC(=O)O)c(C)c4cc23)cc1,2.21
12,O=C(Nc1cc(Cl)cc(Cl)c1)c1cccc(C(=O)Nc2cc(Cl)cc(Cl)c2)c1,1.9
13,CC(=O)Nc1c(O)[nH]c2ccc(C)cc12,1.52
14,C/C(=C1/C(=O)N(c2nc3ccccc3s2)N=C1c1ccccc1)N1CCOCC1,-4.76
15,COc1ccc(C=C2C(=O)OC(C)(C(C)(C)C)OC2=O)c(OC)c1 (stereo not drawn),-1.47
16,COc1ccccc1NC(=O)c1c(NCc2ccc(C)o2)sc2c1CCC2,-2.14
17,CN1C2CCC1CC(OC(=O)CCN1CCCC1)C2 (stereo not drawn),0.986
18,COCC1=Nc2ncnn2C(c2ccc(Cl)cc2Cl)/C1=C(/O)OC (stereo not drawn),0.0842
19,C=CCOc1ccc2c(=O)c(-c3ccc(OC)c(OC)c3)c(C(F)(F)F)oc2c1,3.86
20,Cn1c(=O)c2c(nc(N3CCOCC3)n2Cc2cccc(C(F)(F)F)c2)n(C)c1=O,5.17
21,O=C(Nc1nc(-c2ccc(F)cc2)cs1)c1cc2ccccc2oc1=O,25.4

row,SMILES,% Inhibition @ 10 uM [%]
1,CCC(=O)Nc1ccc(NC(=O)COc2ccc(C)cc2)cc1C,-3.97
2,O=C(CCCN1C(=O)CSc2ncccc21)NCCCc1ccccc1,-4.15
3,Cc1cc(C(=O)NC(C)Cc2ccccc2)cc(C)c1N (stereo not drawn),1.57
4,COc1ccccc1C1CC(=O)Nc2cc3c(cc21)OCO3 (stereo not drawn),-1.89
5,Cc1nc2nc(-c3ccccc3)c(-c3ccccc3)n2nc1C,1.03
6,COC(=O)c1ccc(-c2nc(COc3ccc(C(C)(C)C)cc3)no2)cc1,0.758
7,Cc1cc(C)c2c(n1)nn1c(C)c(CCC(=O)O)c(C)nc21,5.53
8,COc1ccc(-n2c(Cc3cccn3C)nnc2SCC(=O)NCC2CCCO2)cc1 (stereo not drawn),-5.76
9,Cc1ccc(Sc2ccc(C=O)o2)cc1,6.42
10,CC1CC(C)(C)NCc2ccccc21 (stereo not drawn),-0.759
11,CCN(CC)C(=O)CN(c1cccc(OC)c1)S(=O)(=O)c1ccc(C)cc1,-4.62
12,Cc1ccc(S(=O)(=O)c2nc(S(=O)(=O)Cc3ccccc3)sc2N(C)C)cc1,0.627
13,O=C(NCCCc1ccccc1)C1c2ccccc2Oc2ccccc21,0.64
14,COc1ccc(S(=O)(=O)N2CCC(C(N)=O)CC2)c(Cl)c1Cl,-2.28
15,Cc1ccc(-n2c(C)cc(/C=C3\C(=N)N4N=C(S(C)(=O)=O)SC4=NC3=O)c2C)cc1Cl,-3.35
16,COc1ccc(C(=O)Nc2ccc(C)cc2Br)cc1OC,9.29
17,O=C(Nc1ccc(CN2CCOCC2)cc1)c1cccc2ccccc12,-4.72
18,CC(C)(C)C1CCC(OC(=O)C2CC(=O)OC2c2ccccc2)CC1 (stereo not drawn),0.716
19,COc1ccc(C2C=C(c3ccccc3)OC3=C2C(=O)CCC3)cc1 (stereo not drawn),2.22
20,COc1cc2nc3c(O)n(CCN4CCC(Cc5ccccc5)CC4)cnc-3c2cc1OC,3.24
21,CCCNc1nc2ccc(C)cc2n2nnnc12,-4.03

row,SMILES,% Inhibition @ 10 uM [%]
1,CC1=C(C(=O)Nc2ncccc2C)C(c2ccc(F)cc2)C2=C(O)CC(C)(C)CC2=N1 (stereo not drawn),2.38
2,CC(C)c1ccc(OCC(=O)N(Cc2ccco2)Cc2ccccc2F)cc1,-2.84
3,Cc1ccc(-c2nc(CS(=O)(=O)CC(=O)N(C)CCC#N)c(C)o2)cc1,-0.138
4,Cc1ccc(C)c(NC(=O)c2c(F)cccc2F)c1,-4.31
5,NC(=O)/C(=C\C=C\c1ccccc1)NC(=O)c1cccc(Br)c1,-5.88
6,CC(=O)Nc1ccc2nc(SCC(=O)Nc3ccc(Br)cc3Cl)sc2c1,-6.37
7,Cc1ccc(CN2c3ccsc3C(O)=C(/C=N/Cc3ccccc3Cl)S2(=O)=O)cc1,-1.25
8,CC1CCC(NC(=O)c2ccc(C/N=c3\c(O)c(O)\c3=N/C3CCCCC3)cc2)CC1 (stereo not drawn),-2.47
9,CCC(C)C(NC(=O)OCc1ccccc1)C(=O)O (stereo not drawn),2.79
10,CCOC(=O)N1CCC2(CC1)OC(=O)C(C)=C2C(=O)NCC1CCCO1 (stereo not drawn),2.62
11,Fc1ccc(CN2CCN(c3ccc(Cl)cc3)CC2)cc1Br,3.16
12,CCOc1ccc(NC2SC(=O)N(Cc3cccc(C(=O)O)c3)C2=O)cc1 (stereo not drawn),-19.7
13,COc1ccccc1C1=NOC(C(=O)NCc2cccnc2)C1 (stereo not drawn),-3.45
14,COCc1nc2ccccc2n1C(C)c1ccccc1 (stereo not drawn),1.12
15,CC(C)(C)c1ccc(C(=O)N2CCCC(c3ccccc3)C2)cc1 (stereo not drawn),-9.18
16,COc1cccc(C(=O)N2CCN(c3ccccc3OC)CC2)c1,8.72
17,Cc1onc(-c2ccccc2)c1C(=O)Nc1ccc(Br)cc1F,-3.71
18,Cc1ccc(C)c(Cc2c(C)nc(N3CCOCC3)nc2O)c1,4.31
19,NC(=O)CSc1nc2sc3c(c2c(=O)n1-c1ccccc1)CCC3,-2.64
20,Cn1c2c(c(=O)n(C)c1=O)C(c1ccccc1[N+](=O)[O-])C(C#N)=C(N)O2 (stereo not drawn),1.7
21,CC1=C(C#N)C(c2ccc(Cl)cc2)C2=C(N1)c1ccccc1S2(=O)=O (stereo not drawn),6.98
